Results taken from the supplement of paper PMC3334620.
In all, about 33,000 sequences were measured (“E-score (-0.5 to 0.5)”: median about -0.032, highest 2% from about 0.36 on). Some of the results follow.

What follows are sequences tested against T1, Sko1 (UniProt Q02100) (assay: PBM E-score (8-mer binding enrichment) (E-score (-0.5 to 0.5)); higher = stronger / more preferred TF binding; most listed sequences are background and not binding sites). Conditions: protein concentration: 200 nM; construct: GST-full length.
T1 sequence: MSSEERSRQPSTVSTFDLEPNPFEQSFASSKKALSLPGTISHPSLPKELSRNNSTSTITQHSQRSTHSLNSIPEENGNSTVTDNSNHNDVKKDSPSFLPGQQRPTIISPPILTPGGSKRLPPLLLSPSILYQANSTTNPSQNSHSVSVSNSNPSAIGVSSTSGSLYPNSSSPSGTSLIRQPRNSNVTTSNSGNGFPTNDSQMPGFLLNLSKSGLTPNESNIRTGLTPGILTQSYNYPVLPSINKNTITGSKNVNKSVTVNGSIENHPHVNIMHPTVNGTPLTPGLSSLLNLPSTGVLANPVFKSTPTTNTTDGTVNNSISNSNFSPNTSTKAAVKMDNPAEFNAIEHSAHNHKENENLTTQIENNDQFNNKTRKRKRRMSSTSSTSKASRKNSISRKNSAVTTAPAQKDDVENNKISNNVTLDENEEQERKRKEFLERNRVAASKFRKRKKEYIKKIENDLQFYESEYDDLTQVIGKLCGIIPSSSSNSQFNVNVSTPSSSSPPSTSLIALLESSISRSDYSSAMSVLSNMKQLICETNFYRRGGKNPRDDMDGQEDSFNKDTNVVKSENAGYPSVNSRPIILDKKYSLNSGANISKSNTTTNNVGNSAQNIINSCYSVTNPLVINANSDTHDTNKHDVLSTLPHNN
Procedure, shortened: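 E-scores (a modified Wilcoxon-Mann-Whitney statistic) were assigned by the Universal PBM Analysis Suite to every ungapped eight-base word pooled with its reverse complement. The input came from universal all-10-mer Agilent arrays made double-stranded by primer extension and probed with GST-tagged yeast transcription factors at about 100-200 nM. Fluorescent anti-GST detected bound protein, and masliner normalised the scans.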

Point of comparison: AACTCTGC, “PBM E-score” value -0.209. Against it:
- ACAAGAGT — higher, -0.0688
- ATAAGAAG — higher, 0.0366
- CACTGTAA — higher, 0.0809
- CTGACACA — higher, -0.079
- AGCAACAG — higher, -0.0611
- CGCGTCTA — higher, 0.149
- GCTCCGGA — higher, -0.162
- ACGGTCTA — higher, -0.00461
- TGCTTACA — higher, -0.0407
- ACGTATTG — higher, 0.464
- GCACGGAC — higher, -0.0227
- AGACCCCA — higher, -0.188
- ACCGGAGG — lower, -0.363
- ACGGATCG — higher, -0.137
- ATGAGACG — higher, 0.0398
- TGAGCCCA — higher, -0.126
- ACAGAGGA — higher, 0.00055
- AGACCCGC — higher, -0.0587
- AGGATCGG — lower, -0.224
- GATCAGCA — higher, -0.0416
- TAAATCAA — higher, 0.178
- CAGTTCGC — higher, 0.0184
- GAAATCAA — higher, 0.0594
- AATAAAGC — higher, 0.0835
- CATATTGG — higher, 0.0555
- CGATAGAA — higher, 0.027
- CTTGGCGC — higher, -0.204
- CTCCGAGA — lower, -0.215
- TACCTCTA — higher, 0.0817
- CAGGGAGA — higher, -0.165
- ACGACGGA — higher, 0.0966
- AAGTTGGG — higher, -0.0302
- GGAAACTA — higher, -0.111
- ATTTCGCG — higher, 0.125
- ATTTCAAC — higher, 0.0828
- CGAGGCAG — lower, -0.236
- TCATGCGA — higher, 0.0294
- ATTCGTTC — higher, 0.158
- GAAAACTC — higher, -0.0676
- ATCTGAGC — higher, 0.0943
- CTGAGATC — higher, -0.176
- AGAAGGAC — higher, -0.185
- CAGTCTTA — higher, -0.0285
- GGCCCGCC — higher, -0.167
- GTTCATTA — higher, 0.206
- GTTTAGAA — higher, 0.0523
- GAGACCCA — higher, -0.195
- ACCAGGTG — higher, -0.13
- AACTAAGC — higher, 0.123
- GAAAATAA — higher, 0.191
- CATTGCTC — higher, -0.14
- CCACAGGG — lower, -0.37
- CTGGCGAA — higher, -0.192
- AAGTCGAG — higher, -0.118
- AGAAGGTA — higher, -0.0444
- AGTTGAGC — higher, -0.138
- CGTGGTCC — higher, 0.0939
- CCTATGAC — higher, 0.308
- ATCAGTGA — higher, 0.048
- GGAGTTAA — higher, -0.139
- AAAATGCT — higher, 0.0588
- CGATGTCC — higher, -0.149
- CGTCCTAC — higher, -0.165
- TCCTTACA — higher, -0.0475
- AGACCAGG — higher, -0.157
- ATAGTAAT — higher, 0.254
- AGTTACAA — higher, 0.0823
- ATCTGGAA — higher, 0.0487
- CCGTACAC — higher, -0.0557
- CAAGGGGG — lower, -0.388
- AAGTGTGA — higher, 0.12
- GCCACGCA — higher, 0.0845
- GACCACGA — higher, -0.0985
- ACGAAGCC — higher, -0.11
- AATGCTGC — higher, 0.0182
- CTGTACCA — higher, -0.117
- CACGCGTA — higher, 0.311
- ACACTAAG — higher, 0.0281
- TCTATGCA — higher, 0.0418
- GGAAAAAC — higher, 0.0925
- GTGCTAGA — higher, -0.00191
- GCAGTGAC — higher, 0.125
- GGCATTCA — higher, -0.193
- AACTAGAT — higher, 0.0857
- GACGGCGC — higher, -0.106
